In test [1] the target is decorin from bovine articular cartilage (Sigma) (bovine, UniProt P21793 31-360, proteoglycan; dermatan sulfate glycosaminoglycan chain on the core protein (site not stated for this preparation)). The experiment in a line: solid phase binding assay, coated decorin, 0.25 nM mWISP-1-IgG, OD 450 nm. On the procedure: (§1) FIGS. 5A-5B show WISP-1 binding to decorin and biglycan. In 5A, microtiter wells were coated with serial dilutions of decorin (filled circles) or biglycan (empty circles). Non-specific binding sites were saturated and 0.25 nM of mWISP-1-IgG was incubated for 2 hours. The wells were washed and incubated with horseradish peroxidase conjugated anti-human IgG Fc′ (2 μg/ml) for 1 hour. After 6 washes with PBS containing 0.05% Tween-20, a signal was developed by the incubation of a chromogenic substrate. The color development was stopped by the addition of 1 M phosphoric acid and the O.D. at 450 nm was measured. In 5B, fifty milliliters of human skin fibroblast conditioned media were coated in wells of microtiter plates. Non-specific binding sites were saturated and 0.25 nM of WISP-1-IgG was incubated in the presence of various concentrations of decorin (filled circles) or biglycan (empty circles) for 2 hours. The binding of mWISP-1-IgG was evaluated as described in 5A.
Chain of UniProt P21793 (P21793 31-360 limits assumed): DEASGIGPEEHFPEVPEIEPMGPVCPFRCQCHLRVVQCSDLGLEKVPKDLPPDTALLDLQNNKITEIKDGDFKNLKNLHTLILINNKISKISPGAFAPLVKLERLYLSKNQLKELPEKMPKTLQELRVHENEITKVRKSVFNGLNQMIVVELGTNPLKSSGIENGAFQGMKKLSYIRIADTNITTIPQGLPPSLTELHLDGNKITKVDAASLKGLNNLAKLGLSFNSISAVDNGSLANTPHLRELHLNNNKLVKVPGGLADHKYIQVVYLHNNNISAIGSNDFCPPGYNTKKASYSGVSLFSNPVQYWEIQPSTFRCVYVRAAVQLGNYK
(§2) Decorin and biglycan were coated to microtiter wells overnight. Non-specific binding sites were saturated and 0.25 nM of mWISP-1-IgG was incubated for 2 hours. The wells were washed and incubated with horseradish peroxidase conjugated anti-human IgG Fc′ (2 μg/ml) for 1 hour. […] The color development was stopped by the addition of 1 M phosphoric acid and the O.D. at 450 nm was measured.

Test [2] deals with T1, biglycan from bovine articular cartilage (Sigma) (bovine, UniProt P21809 38-369, proteoglycan; glycosaminoglycan chains on the core protein (sites not stated for this preparation)).
T1 sequence (looked up): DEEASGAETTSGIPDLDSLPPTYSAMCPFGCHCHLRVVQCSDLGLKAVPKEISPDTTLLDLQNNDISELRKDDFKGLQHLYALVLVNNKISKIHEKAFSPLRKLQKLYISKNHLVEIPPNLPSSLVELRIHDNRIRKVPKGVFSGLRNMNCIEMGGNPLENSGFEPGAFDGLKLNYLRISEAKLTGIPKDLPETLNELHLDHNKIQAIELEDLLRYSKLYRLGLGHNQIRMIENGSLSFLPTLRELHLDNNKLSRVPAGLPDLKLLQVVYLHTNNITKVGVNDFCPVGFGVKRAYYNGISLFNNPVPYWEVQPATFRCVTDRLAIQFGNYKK
The experiment in a line: solid phase binding assay, coated biglycan, 0.25 nM mWISP-1-IgG, OD 450 nm. On the procedure:
as §1, §2

B1: mouse WISP-1-IgG (chimeric recombinant mouse WISP-1 bearing a human immunoglobulin Fc fragment tag) (Fc fusion)
chain: TALSPTPTTMTFTPAPLEETTTRPEFCKWPCECPQSPPRCPLGVSLITDGCECCKICAQQLGDNCTEAAICDPHRGLYCDYSGDRPRYAIGVCAQVVGVGCVLDGVRYTNGESFQPNCRYNCTCIDGTVGCTPLCLSPRPPRLWCRQPRHVRVPGQCCEQWVCDDDARRPRQTALLDTRAFAASGAVEQRYENCIAYTSPWSPCSTTCGLGISTRISNVNARCWPEQESRLCNLRPCDVDIQLHIKAGKKCLAVYQPEEATNFTLAGCVSTRTYRPKYCGVCTDNRCCIPYKSKTISVDFQCPEGPGFSRQVLWINACFCNLSCRNPNDIFADLESYPDFEEIANP[here human IgG1 Fc without letters]
notes: also called mWISP-1-IgG; WISP-1-Fc
With B1, the binding result in test [1] and in test [2] was “binds” each time.

These data come from patent publication US20050054563A1 (Genentech, published 2005).
